Hit rate of the full screen: of about 4,800 compounds, about 420 (8.8%) showed an effect of 50% or more. The list shows a part of the results.
What follows are compounds tested on Plasmodium falciparum (assay: Confirmatory screen in NF54 nanoGlo assay, in single point, at 2uM, 72h). Settings: timepoint 72 hour.
Assay type: functional, Erythrocyte

Going from O=C(CCC(=O)c1ccc(F)cc1F)NS(=O)(=O)c1cccnc1 to C[C@H]1C(=O)N(C)C[C@@H](CNS(=O)(=O)c2ccccc2)N1Cc1cccnc1, the “% Inhibition” value rises from -4% to -3%.

Going from COc1cccnc1NC(=O)c1cnn(C)c1 to COc1ccc(C)cc1NC(=O)N1CC(c2nc(C(C)C)nn2C)C1, the “% Inhibition” value falls from 1% to -5%.

First: NC(=O)N1CCC[C@H]1C(=O)NC1CC(=O)N(C2CC2c2ccccc2)C1 (stereo partly drawn)
Second: O=C(C1CC1c1ccccc1)N1CCC(c2nc3ccccc3o2)CC1 (stereo not drawn)
The “% Inhibition” value of the first is lower: 3% for the first, 4% for the second.

First: O=C1[C@@H]2CCCN2C(=O)N1Cc1ccnc(OC2CCOCC2)c1
Second: COCCC(=O)N1CC[C@H](c2nc(C3CCOCC3)no2)C1
The “% Inhibition” value of the first is lower: -9% for the first, -3% for the second.

First: O=C(Nc1onc2c1CCC2)c1ccc2ccccc2c1
Second: O=S(=O)(c1cccc(Cl)c1)N1CCc2nc(N3CCCCC3)nc(Oc3ccccc3)c2C1
The “% Inhibition” value of the first is lower: 45% for the first, 73% for the second.

First: CCOC(=O)c1cn(CC)c2cc(NC3CCCCC3)c(F)cc2c1=O
Second: FC(F)(F)c1cnc(-c2csc(NC3CCCCC3)n2)c(Cl)c1
The “% Inhibition” value of the first is higher: 78% for the first, 9% for the second.

Going from CN(C)c1nc(N)nc(CN2CCOc3ccc(F)cc32)n1 to CN(C)c1ccc(Nc2ccc(F)cc2S(=O)(=O)C(F)(F)F)cn1, the “% Inhibition” value falls from -5% to -7%.

Compared with C[C@@H](C(=O)Nc1cc(C(F)(F)F)c[nH]c1=O)n1cc(Cl)cn1, CC1=NN(c2ncc(C(F)(F)F)cc2Cl)C(=O)c2ccccc2O1 is higher in “% Inhibition” value: -9% for the first, 1% for the second.

First: CC(C)CCn1nnnc1[C@]1(N(C)C)CCCN(C(=O)c2cccn2C)C1
Second: CCCc1nnc(N(Cn2nnc3ccccc32)C(=O)CN2CCOCC2)s1
The “% Inhibition” value of the first is higher: 88% for the first, 0% for the second.

Going from Cc1c(CN2CCc3ccccc32)cnn1C to Cc1c(C(=O)NC2CC2)cc(-c2ccccc2)n1C, the “% Inhibition” value falls from -1% to -3%.

Going from O=C(Nc1ccc(Cc2ccc(NC(=O)c3ccc(Br)cc3)c(O)c2)cc1O)c1ccc(Br)cc1 to Cc1ccccc1C(=O)N(Cc1cccc(F)c1)c1ccc(CC(=O)NCCN2CCCCC2)cc1, the “% Inhibition” value rises from 3% to 44%.

Going from CS(=O)(=O)N[C@H]1CCCN(c2ncc(-c3ccccc3)s2)C1 to CC1CCN(C(=O)c2c(-c3ccccc3)nc3n2CCS3(=O)=O)CC1, the “% Inhibition” value rises from -18% to -2%.

Compared with Cc1cc(C)cc(-n2c(=O)c3sccc3n(CC(=O)Nc3ccc(N(C)C)cc3)c2=O)c1, CCc1ccc(C2=Nc3cccnc3N(CC(=O)Nc3c(C)cc(C)cc3C)C(=O)C2)cc1 is lower in “% Inhibition” value: 16% for the first, -4% for the second.

Going from c1ncc(N2CCN3CCC[C@H]3C2)nc1OCC1CCCC1 to O=C(NC1CCCC1)N1CCN(c2nc3cccnc3n(Cc3ccccc3)c2=O)CC1, the “% Inhibition” value rises from -7% to 5%.

First: O=C(NCC1CCCN(C(=O)C2CC3CCC2C3)C1)Nc1cccc(F)c1 (stereo not drawn)
Second: CCO[C@H]1C[C@H](NC(=O)Nc2ccc(F)c(C3CC3)c2)C1
The “% Inhibition” value of the first is lower: 0% for the first, 2% for the second.

Going from c1nc2nc[nH]c(NC3CCCCC3)c-2n1 to N#Cc1cc2cc(Cl)cnc2nc1N1CCCCC1, the “% Inhibition” value falls from 10% to 6%.

Going from COc1ccc(OC)c(NC(=O)Cn2cnc3nc(N4CCOCC4)ncc3c2=O)c1 to COCCOc1ccc2c(n1)CCN(C(=O)c1ccc(OC)c(OC)c1)C2, the “% Inhibition” value falls from 8% to -12%.

Going from COc1ccc(C(O)CN2CCC(c3ccccc3)C2)cc1F (stereo not drawn) to CC1CCC(NC(=O)C(c2ccccc2)c2ccccc2)CC1 (stereo not drawn), the “% Inhibition” value falls from 13% to 10%.

Compared with CCCCn1nnc(N(C(=O)c2cccc3c(Br)cccc23)C(=O)c2cccc3c(Br)cccc23)n1, CCN(C(=O)Cn1ncn2nc(-c3cccc4ccccc34)cc2c1=O)c1ccccc1 is higher in “% Inhibition” value: -1% for the first, 1% for the second.

Going from CCc1ccc(-c2cc3c(=O)n(CC(=O)N4CC(C)CC(C)C4)ncn3n2)cc1 (stereo not drawn) to CCCC(=O)N1CCN(c2c(C)n(-c3ccccc3)c(=O)n(C)c2=O)CC1, the “% Inhibition” value rises from -1% to 2%.

Going from CC1(C(=O)NC(C#N)c2cccc(Cl)c2)CC2CCC1O2 (stereo not drawn) to Cc1cccc(NC(=O)[C@@H](C#N)C(=O)C2CCC2)c1, the “% Inhibition” value falls from 2% to 0%.

Compared with Cc1cccc([C@@H](NC(=O)Nc2ncco2)C(F)(F)F)c1, O=C(Cc1ccc(Oc2nccc(C(F)(F)F)n2)cc1)NCCO is higher in “% Inhibition” value: -10% for the first, 1% for the second.

Compared with Cc1ccc2c(c1)C(NC(c1cccnc1)c1ncc[nH]1)CCC2 (stereo not drawn), Cc1ccc(-c2cc3c(N4CC=C(c5ccccc5)CC4)nccn3n2)c(C)c1 is higher in “% Inhibition” value: 2% for the first, 4% for the second.

First: Cc1ccc(OCCCOc2ccc(CO)nc2)cc1C
Second: Cc1cccc(C)c1Oc1ccccc1NC(=O)CCc1nnc[nH]1
The “% Inhibition” value of the first is lower: 3% for the first, 5% for the second.

Compared with CCN(C(=O)[C@H]1CCOC1)c1ccc(C(F)(F)F)cc1, FC(F)(F)c1cccc([C@@H]2CNC3(CCCC3)CO2)c1 is lower in “% Inhibition” value: 3% for the first, -13% for the second.

Compared with CC1=CC(=[N+](CCO)CCO)C=C/C1=C(\c1ccc(N(CCO)CCO)cc1C)c1ccccc1Cl, Cc1cc(C)c(OC(=O)c2ccc(Cl)cc2Cl)c(CNC(=O)c2ccccc2)c1 is lower in “% Inhibition” value: 91% for the first, -16% for the second.

First: O=C1C[C@@]2(CCCN(c3nc(C4CC4)ns3)C2)CN1
Second: O=C([C@H]1CCCN(C(=O)N2CCc3sccc3C2)C1)N1CCc2[nH]ncc2C1
The “% Inhibition” value of the first is higher: -7% for the first, -15% for the second.

Going from COc1cccc(-c2cc(O)cc(CC[C@H]3CCCCN3)c2)n1 to O=C(Nc1n[nH]c(Cc2cccc(F)c2)n1)[C@@H]1CCCc2[nH]ncc21, the “% Inhibition” value falls from 73% to -8%.

Going from c1coc(CNc2nc(Nc3cccc4ccccc34)nc3ccccc23)c1 to Nn1c(-c2ccccc2)c(-c2ccccc2)c(-c2ccccc2)cc1=O, the “% Inhibition” value falls from 20% to -19%.

Going from CCC1(CC)NC(=O)N(CC(=O)Nc2cccc(CC(=O)OC)n2)C1=O to CCOC(=O)C(Nc1cccc(NC(C(=O)OCC)C(=O)OCC)c1)C(=O)OCC, the “% Inhibition” value rises from -19% to -16%.

First: Cc1cc(Cl)ccc1OCc1cccc(-c2nc3c4cn[nH]c4ncn3n2)c1
Second: COCc1cc2nn(CC(=O)Nc3ccc(F)c(F)c3)c(=O)n2c(-c2ccccc2)n1
The “% Inhibition” value of the first is higher: -1% for the first, -11% for the second.

First: Cc1nnc2sc(-c3cnn(-c4ccccn4)c3C(F)(F)F)nn12
Second: CNc1nc(-c2ccccc2)nnc1C(F)(F)F
The “% Inhibition” value of the first is lower: -17% for the first, 0% for the second.

Going from CN(C(=O)c1ccc2ncsc2c1)c1ccccc1 to c1ccc2[nH]c(Nc3nc4ccccc4s3)nc2c1, the “% Inhibition” value rises from -4% to 20%.

First: CCOC(=O)C1(C(=O)OCC)CN(c2ccccc2)[C@H](C(=O)OC)C1(C(=O)OCC)C(=O)OCC
Second: CC1(C)CC(=O)C(CC(=O)N2CCCCC2)(Cc2ccccc2)C(=O)C1
The “% Inhibition” value of the first is lower: -1% for the first, 2% for the second.

Going from COc1cc(-c2nc3ncnn3c(N)c2C#N)cc(OC)c1OC to COc1cc(NS(=O)(=O)c2ccc(-n3cnnn3)cc2)nc(OC)n1, the “% Inhibition” value rises from -21% to -5%.

Going from O=C(Nc1ccc2c(c1)OCCO2)N1CCN(c2nc3cccnc3n(Cc3ccccc3)c2=O)CC1 to O=C(CN1CCN(Cc2cccc(Cl)c2)C1=O)N1CCN(c2ccccc2)CC1, the “% Inhibition” value falls from -6% to -7%.

First: O=C(Nc1cn[nH]c1)C(=O)Nc1ccc(F)c(F)c1F
Second: COC(=O)c1ccccc1NC(=O)[C@@H]1C(=O)N(c2ccc(Cl)cc2)N=C1C
The “% Inhibition” value of the first is higher: -3% for the first, -10% for the second.

Going from CN(C)c1c(F)c(F)c2cc3c(C(C)(C)C)nn(C)c3nc2c1F to Cc1ccc(S(=O)(=O)Nc2c(-n3cnnc3)nn(C)c2C)c(C)c1, the “% Inhibition” value falls from 3% to -7%.

Cc1nc(-c2cccnc2)nc(NCCNC(=O)C(C)(C)C)c1C and CCn1nc(C)c(CN(C)C(=O)c2nn3cccnc3c2Cl)c1C are the same in “% Inhibition” value: -2% for the first, -2% for the second.

Going from O=S1(=O)NC(c2cccc(F)c2)=Nc2ccc(S(=O)(=O)N3CCOCC3)cc21 to O=C(CN1CCN(Cc2ccc(F)cc2)C1=O)N1CCN(c2ccccc2)CC1, the “% Inhibition” value rises from -12% to -6%.

First: CC[C@@]1(c2ccc(NC(=O)Cc3c[nH]c4ccccc34)cc2)CCC(=O)NC1=O
Second: O=C(C[C@@]1(O)C(=O)N(Cc2ccc(Cl)cc2Cl)c2ccccc21)c1ccccn1
The “% Inhibition” value of the first is higher: -3% for the first, -10% for the second.

Compared with O=C(Nc1ccsc1C(=O)N1CCCCC1)c1cnccn1, CCCNC(=O)c1sccc1NC(=O)c1cnccn1 is lower in “% Inhibition” value: 8% for the first, 2% for the second.

First: Nc1nc(Cc2ccccc2)c(Br)c(=O)[nH]1
Second: Oc1cc(-c2ccc(F)cc2)nn1-c1nc2ccccc2[nH]1
The “% Inhibition” value of the first is higher: 2% for the first, -9% for the second.

Going from O=C1c2ccccc2C(=O)N1CCc1csc(Cn2cncn2)n1 to O=C(CCc1nc2ccccc2[nH]1)N1CCN(c2ccccn2)CC1, the “% Inhibition” value falls from 3% to -3%.

First: CCC[C@H](NC(=O)c1ccc(Cl)o1)c1nnn[nH]1
Second: CCCc1noc([C@H](C)OC(=O)c2cc[nH]n2)n1
The “% Inhibition” value of the first is higher: 6% for the first, -7% for the second.

Going from CC(CO)(CO)NCc1ccc(F)cc1F to O=C(O)CCCC(=O)NCCc1ccc(Cl)cc1, the “% Inhibition” value falls from -5% to -14%.

Going from CC1(C)C2Cc3nc4c(cc3C1C2)CCC4 (stereo not drawn) to CC(C)(C)c1cc(C[C@H]2CNCC[C@H]2CC(=O)N2CCC(Cc3ccccc3)CC2)no1, the “% Inhibition” value rises from -11% to 0%.

Compared with C#CCN(C(=O)NC1CCN(C(C)=O)CC1)C1CCCC1, CC(C)(C)C1CC(NC(=O)C2CC=CC2)CCO1 (stereo not drawn) is higher in “% Inhibition” value: -12% for the first, -5% for the second.

First: O=c1[nH]c2nc(N3CCN(c4ccccn4)CC3)ncc2c(=O)n1-c1ccc(F)cc1
Second: CC(C)[C@H](CNc1ncnc2ccsc12)N1CCN(C)CC1
The “% Inhibition” value of the first is lower: -2% for the first, 5% for the second.

First: C#CCCCCC(=O)Nc1ncccc1Cl
Second: O=C(O)C[C@H](NC(=O)c1cscn1)c1ccc(Cl)s1
The “% Inhibition” value of the first is higher: -2% for the first, -11% for the second.

Compared with O=C(O)c1nccn1CNc1ccncc1, CC(C)(C)C(=O)N1CCC(O)(CS(=O)(=O)Cc2ccc(Cl)cc2)CC1 is higher in “% Inhibition” value: -2% for the first, 4% for the second.

For CC1(C)C[C@@](CCNCc2ccc(Cl)cc2)(Cc2ccccc2Cl)CCO1, the “% Inhibition” value was -7%.

— ChEMBL document CHEMBL4888484, “Replenishing the malaria drug discovery pipeline: Screening and hit evaluation of the MMV Hit Generation Library 1 (HGL1) against asexual blood stage Plasmodium falciparum ,using a nano luciferase reporter read-out” (2022)
